Read counts are not given, so values of variants with three or more changes are uncertain.
B1: LINE1-mini (parent)
chain: GGCAGAGCUCAACACAGCGUGGCAAAGUGGCUGUGGCUAGACUGCC

Variants of: B1
Assay: self-cleavage, relative activity (ratio to wild type); higher = more cleavage; in vitro, sequencing; the parent is a self-cleaving ribozyme
With UCCAGAGCUCAGCACAGCGUGGCAAAGUGGCUGUGGCUAGACUGCC [G1U G2C A12G] the self-cleavage was 0.
GGCAGAGGUCAACACUGCGUGGCAAAGUGGCUGUGGCGAGACUGCC [C8G A16U U38G] gave a self-cleavage of 0.01.
With GGCAGAGCUGACCACAGCAUGGCAAAGUGGCUGUGGGUAGACUGCC [C10G A12C G19A C37G] the self-cleavage was 0.
Variant AGCAGACCUCAACACAGUGUGUCAAAGUGGCAGUGGCUAGACUGCC [G1A G7C C18U G22U U32A] has a self-cleavage of 0.1.
GGCAGAGCUCAACACAGCGUCGAAAAAUGGCUGUGGCUAGACUGCU [G21C C23A G27A C46U] gave a self-cleavage of 2.02.
GGCAGAGCUGGACACAGCGUGGCAAAGGGGCUGUAGCUAGGCUGCC [C10G A11G U28G G35A A41G] gave a self-cleavage of 0.01.
For GGCAUACCGCAACAUAGCGUGGCAAAGUGGCUGUGGCUAGACUACC [G5U G7C U9G C15U G44A], the self-cleavage was 0.22.
GGCAGGGUCCUACACAGCGUGGCAAAGUGGCUGUGGCUAGACUACC [A6G C8U U9C A11U G44A] gave a self-cleavage of 0.01.
With GGCAGAGAUCAAUACAGCGUUGCAAAGUGGCUGUGCCUACACUGCC [C8A C13U G21U G36C G40C] the self-cleavage was 0.56.
Variant GGCAGAGCUCAGCACAGCGUGGCAAAGUGGCUGUUGCUAGACUGAC [A12G G35U C45A] has a self-cleavage of 0.04.
With UGCAGAGCUCAACACAGCGUAGCAAAGUGUCUGAGGCUAGACUGCC [G1U G21A G30U U34A] the self-cleavage was 0.02.
AGCAGAGCUCAAAACAGCGCGGCAAAGUGGCCGUGACUAGACUGCC [G1A C13A U20C U32C G36A] gave a self-cleavage of 0.05.
Work on GGCAGAGGGAAAGACAGCGUGGCAAACUGGCUGUGGCGAGACUGCU [C8G U9G C10A C13G G27C U38G C46U] yielded a self-cleavage of 0.01.
With GGCAGAGCCUAACACAGCGUGGCAAAGUGGCUGUGGCUAGGCUGCC [U9C C10U A41G] the self-cleavage was 0.02.
In the case of GGAAGUGCUCAACACAUCGUGGCAAAGUGGCUGUGGCUAGACUGCC [C3A A6U G17U], the self-cleavage is reported as 0.17.
Work on GUCAGAGCUCAACACAGACUGGCAAAUUGGAGGUGGCUAGACUGCC [G2U C18A G19C G27U C31A U32G] yielded a self-cleavage of 0.07.
For GGGAGAGCUAAACACAGCGUGGCAAAGUUGCUGUGGCUAGACUGCA [C3G C10A G29U C46A], the self-cleavage was 0.02.
GGCAAAGCUCAACACAGCGGGUCCAAGUGGCUGUGGCUAGACUGCC [G5A U20G G22U A24C] gave a self-cleavage of 0.03.
Work on GGUAGAGCUCAACUCAGAGUGGCAAAGUGGCUGUGGAUAGACUGCC [C3U A14U C18A C37A] yielded a self-cleavage of 0.01.
For GGCAGAGCUAAACACAGCGUGGCAAAGCGCCUGUGGCUAGACUUGC [C10A U28C G30C G44U C45G], the self-cleavage was 0.
With GGUAGAGCUCAUCACAGCGUGGAAAAGUGGCUGUGGCUAGACUGCC [C3U A12U C23A] the self-cleavage was 0.12.
In the case of GGCAGAUCUCAAAACAGCGUGGCAAGGUGUCUGAGGCUAGACUGCC [G7U C13A A26G G30U U34A], the self-cleavage is reported as 0.05.
GGCAGAGCUUAACACAGCGUAGUAAAGUGGCUGUGGCUACACUGCC [C10U G21A C23U G40C] gave a self-cleavage of 0.01.
In the case of GGCAGAGCUGUCCACAGCGUGGCAAAGUGGCUGUGGCUAGACUGCC [C10G A11U A12C], the self-cleavage is reported as 0.04.
GGUCGAGCUCAACACAGCGUGGCACAGUGCCUGUGGCUAGACUGCC [C3U A4C A25C G30C] gave a self-cleavage of 0.05.
Variant GGCUGAGCUCAAUACAACGUGGCUAAGUGGCUGUGGCUAGACUGCC [A4U C13U G17A A24U] has a self-cleavage of 0.06.
In the case of GGCAGAGCUCAACACAGCGUGACAAAGUGGCUAUGGGUAGACUGCA [G22A G33A C37G C46A], the self-cleavage is reported as 0.04.
GGCAGAGCUCAACGCAGCGUGCCAAAGAGGCUGUGGCUAGACUGCC [A14G G22C U28A] gave a self-cleavage of 0.01.
For GGGAGAGCUCAACACAGCGAGGCAAAGUGGCUGUGGCUAUACUGCC [C3G U20A G40U], the self-cleavage was 0.07.
With GGCAGAGCUCAACACAGCGUGGGAAAGUGGCUGUGUCUAGACUACC [C23G G36U G44A] the self-cleavage was 0.03.
Variant GGGAGUGCUCAACACAGCAUGGCAAAGUGGCUGUGGCCAGACUGGC [C3G A6U G19A U38C C45G] has a self-cleavage of 0.26.
For UGCAUAGCUCAACGCAGCCUGGCAAAGUUGCUGUGGCUAGAUUGCG [G1U G5U A14G G19C G29U C42U C46G], the self-cleavage was 0.01.
In the case of GGCAGAGCUCAAUACAGCGUGGCAAAGUGGCUGUGGCUAGAAUGCU [C13U C42A C46U], the self-cleavage is reported as 0.13.
UGCAAAAGUCAACACAGCGUGACGAAGUGGCUGUGCCUAGACUGUC [G1U G5A G7A C8G G22A A24G G36C C45U] showed a self-cleavage of 0.21.
For GGCAGAGCUCAAUAUAGAGUGGCAAAGUGGCUAUGGCAAUACUACC [C13U C15U C18A G33A U38A G40U G44A], the self-cleavage was 0.02.
GGUAAAUCUCAACACAGGGUGGCAUAGUGGCUGUGGCUAGACUGCC [C3U G5A G7U C18G A25U] gave a self-cleavage of 0.17.
Variant GGCAAAGCUCAACACAGCGUGGCAAAGUGGCUGUGACGAGACUGCC [G5A G36A U38G] has a self-cleavage of 0.03.
Variant GGUAGACCUCAACGCAGCGUGGCAUAGUUGCUGUGGCUAGACUGCC [C3U G7C A14G A25U G29U] has a self-cleavage of 0.07.
For GGCAGUGCCCAACACAGUGUGGCUAAGUGGCUGUGGCUAGACUGCC [A6U U9C C18U A24U], the self-cleavage was 0.03.
Work on GGCAAAGCUCAACACAGCGUGGCAAAGUGGCUGUGUCUAGACUGAC [G5A G36U C45A] yielded a self-cleavage of 0.03.
With GGCAGAGCUCCACACAGCGUGGCAAAGUGGCUGUAGCUAGACUGUC [A11C G35A C45U] the self-cleavage was 0.01.
Work on GACAGAGCUCCAUACAGCGUGGCAAACUGGCUAUGGCUACACUGCC [G2A A11C C13U G27C G33A G40C] yielded a self-cleavage of 0.04.
Work on GGCAGAGCUCAACACAGCGUGGCAAAGUGCCUGAAGCUAAACUGCC [G30C U34A G35A G40A] yielded a self-cleavage of 0.04.
Work on GGCGGAACUCAACACAGCGUGGCAAAGUGGCUGUGUCUAGACUGCC [A4G G7A G36U] yielded a self-cleavage of 0.05.
In the case of GGCAGCGAUCAACACAGCGUGGCAAAGUGGAUGUGGCUAGACUGCC [A6C C8A C31A], the self-cleavage is reported as 0.26.
With GGCAGAGCUCAACACUGAGUGGCAAAGUGGCUUUGGCUAGACUGGC [A16U C18A G33U C45G] the self-cleavage was 0.04.
Work on GGCAUAGCUCAACAAAGCGUUGCAAAGUGGAUGCGGCUAGACUGCC [G5U C15A G21U C31A U34C] yielded a self-cleavage of 0.1.
With GGCAGAGCUCAACACAGUGUGGCAAAGUGGCGGUGGCUAGACUGUC [C18U U32G C45U] the self-cleavage was 0.03.
CGCAUCGCUCAACACAGCGGGGCAAAGUGGCUGUGGCUAUACUGCC [G1C G5U A6C U20G G40U] showed a self-cleavage of 0.02.
Work on UGCAGAGCUUAACACUGCGUGGCAAAGUGGCUGUGGCUAGACUGCC [G1U C10U A16U] yielded a self-cleavage of 0.1.
GGCAGCGCUCAACACAGCGUCGCAAAGGGGCCGUGGCUAGACUGAC [A6C G21C U28G U32C C45A] gave a self-cleavage of 0.02.
GGCAGAGCUCGACACAGCGUGUCAACGUGGCUGUGGCUACACUGCC [A11G G22U A26C G40C] gave a self-cleavage of 0.03.
GGCCGAGCUCAACUCAGCGUGGCAAAGUGCCUGUGGCUAGACUGCC [A4C A14U G30C] gave a self-cleavage of 0.12.
In the case of GGCAGAGCUCUACACAGCGGGGCAAAGUGGCUGUGGCUAGCGUGCC [A11U U20G A41C C42G], the self-cleavage is reported as 0.
GGCAGAGCUCAACACAGCGUGGCCAAGAGGCUGUGGCUCGACUGCC [A24C U28A A39C] gave a self-cleavage of 0.13.
GGCAGAGAUCAACACAGCGGGGCAGAGUGGCUGUGGCUAGACGGCC [C8A U20G A25G U43G] showed a self-cleavage of 0.06.

From the RNAGym collection of RNA variant scans (doi:10.7554/elife.90254)
